Data reported in the supplement of paper PMC11417369.
± gives the standard deviation of the averaged measurements. Some of the results follow.

System: PfAP2-EXP AP2 domain (GST-tagged)
Assay: gcPBM binding intensity (ln(normalized median fluorescence intensity)); higher = stronger DNA binding
Summary of the method: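 An Agilent 4 × 180k array of primer-extended double-stranded 36-bp intergenic genomic probes, with negative controls, was incubated for 1 h with GST-tagged P. falciparum DNA-binding domains expressed in E. coli. Alexa488 anti-GST antibody detected bound protein, scanned at 488 nm. Binding intensity is the highest Masliner-normalised natural-log median intensity across replicate spots of either probe orientation.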

Row | Sequence | gcPBM binding intensity (ln)
1 | TAATATCATTTATGGGGTACCTCCTATTCTTATTTA [XGTACX_site1839] | 8.72 ± 0.39
2 | CGAACTGCACTTTTTAGTACTTAATAATTATTTTTT [XGTACX_site2446] | 8.88 ± 0.2
3 | TCATATGTTAAATGATGTACATTTAATATAAATAAA [XGTACX_site900] | 8.38 ± 0.15
4 | AAAAAAAACATCCTCACACATATATATATATATATA [CACACA_site5166] | 10.1 ± 0.46
5 | ATATATATGAATACATGTACGTATTTGTCTATGTAT [XGTACX_site8306] | 8.71 ± 0.35
6 | AATAAAGGAAATAAATAATTTATTTTGTAAAATATG [CACACA_negctrl_site97] | 8.46 ± 0.39
7 | GCATATATTATATATTTATTTATTTTTTTTTTTTAA [GTGCAC_negctrl_site193] | 8.32 ± 0.46
8 | CAATGTTAACATATTACACACATATGTATTTATAAT [CACACA_site5512] | 8.73 ± 0.47
9 | TTCGTTATAATTGAATTTACAATATGCTTTATAATG [XGTACX_negctrl_site238] | 8.38 ± 0.36
10 | ATATATACAAAGGATTAACACACATATTATTATATA [CACACA_site8563] | 8.36 ± 0.46
11 | TAAATTACATGAAATTGTACATGAATATTAAATATA [XGTACX_site3909] | 8.38 ± 0.42
12 | GTGTACAGTTTTTGCACACATATAAATAAAAAAAAG [CACACA_site3599] | 8.68 ± 0.3
13 | AAAATATTTATATTTACACACACATAATACATATAT [CACACA_site32] | 8.54 ± 0.45
14 | CTTATAAAAAAAATTGCACACATATTATACAGGACG [CACACA_site8133] | 8.67 ± 0.33
15 | TGTATATATTTTAATAGTACTCATATATATATATAT [XGTACX_site7216] | 10.1 ± 0.45
16 | ATAACTTTCTATACATGTACACATATATGGTATTTT [XGTACX_site7535] | 9.04 ± 0.35
17 | ATAAATTTTTTATGAACACACAAATACACCCACTCA [CACACA_site5465] | 9.14 ± 0.38
18 | AATATTTTTTTTTAAACATGCATATTTGCATTACCC [TGCATGCA_site437] | 8.58 ± 0.41
19 | TTTACATTTATGTGCACACATTCCATTTGAAAGTAA [CACACA_site1953] | 8.88 ± 0.18
20 | TTTTTTTTAATGAGAAGTACGGTCTTTCAATGTCTT [XGTACX_site6773] | 8.28 ± 0.41
21 | ATTGTGTTGACGGGTGACCCTTCCAGAGAAATAGAA [CACACA_negctrl_site1362] | 8.6 ± 0.51
22 | CATTAACAAATAAATGCACACATATATATAAATAAT [CACACA_site7892] | 8.69 ± 0.014

Row | Sequence | gcPBM binding intensity (ln)
23 | AATTTATTAGATAGATGTACATTTTAATAAAAGTAG [XGTACX_site6819] | 8.46 ± 0.26
24 | TAAAAATTAAAACTGGGTACAAATTTATAGATAGCC [XGTACX_site8075] | 8.79 ± 0.33
25 | TCCCCTTAATTTAAAACACACAAACAAATAAGTTAG [CACACA_site5973] | 8.52 ± 0.39
26 | TGAACAATATATAATAGTACATATTTATTTTTTTCT [XGTACX_site4256] | 8.13 ± 0.2
27 | ATATGTTTTTTTTTTTTTTTTTAATTTGTCATAAAT [CACACA_negctrl_site1208] | 8.35 ± 0.49
28 | TCTTTCAATATTAATGCATGTTAATAATAAATTTTA [TGCATGCA_site448] | 8.35 ± 0.23
29 | TAAAGATGAAATATCACACATATATAAATATATAAA [CACACA_site4580] | 8.25 ± 0.27
30 | TCTTTCTTATTTTAATGATATTTATTCATTCCAGTT [CACACA_negctrl_site1679] | 8.66 ± 0.44
31 | ATATAAATAAATATATGTACACACACAAATATATAC [XGTACX_site3950] | 8.68 ± 0.27
32 | AATACTAAAACCCATACACACACATATATATAGTAC [CACACA_site9041] | 8.81 ± 0.28
33 | ATAAAAAAAAATATTTGTACACATATTTATATATTA [XGTACX_site8147] | 8.24 ± 0.29
34 | AAAAAACACGCGCACACACACACACGCGCCCACATA [CACACA_site7106] | 8.57 ± 0.21
35 | AGAATTATTCTAAAAACACACAATACAAAAGTGCAT [CACACA_site3004] | 8.76 ± 0.27
36 | ACTTTTACACTTTGATTGCACTACTAAACCAGTTCA | 9.15 ± 0.32
37 | TTCTAATAAATGTGTTGTACACCTTTAGCAACTATT [XGTACX_site3235] | 8.47 ± 0.24
38 | TATATAAATATATACACACATACATACATACATATA [CACACA_site3835] | 8.43 ± 0.38
39 | TAATAATTACAAAGAAGTACATAAAAAAAAATTTAT [XGTACX_site4684] | 8.54 ± 0.32
40 | CTATATATATATTTCAGTACATATTAAGAATATATA [XGTACX_site4860] | 8.31 ± 0.38
41 | AGGAAAAAAGAAAAAACACACATAAATATTTATATA [CACACA_site7446] | 8.48 ± 0.66
42 | TATATATATTTATGCACACAAAATATATTATATAAT [CACACA_site5955] | 8.515 ± 0.078
43 | TATACATCATTTTTCAACAACAAAAAAAAAAAAAAT [CACACA_negctrl_site1185] | 8.4 ± 0.47
44 | ACGTAAAATAGGGACGCATGCACAAATATTTTTAAA [TGCATGCA_site336] | 9.53 ± 0.37
